# Experimental data from the supplement of paper PMC8728848.
# The other results are listed elsewhere or left out.
# Legend:
# Experiment in all cases: glycan array binding signal (z-score within array); higher = stronger binding
# Conditions in all cases: glycan notation: IUPAC condensed, linker removed
# [1] = molecular target: Gal(b1-4)GlcNAc(b1-3)Gal(b1-4)GlcNAc(b1-3)Gal(b1-4)GlcNAc
# Summary of the method: (§1)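 Arrays were curated from the Consortium for Functional Glycomics database, 3228 in total, and kept only where the protein sequence was available. Binding is expressed as a within-array Z-score. This score was averaged across arrays of the same protein sequence at different concentrations or buffers and across linkers, and negative values can be read as non-binding.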
# [2] = molecular target: Gal(b1-4)GlcNAc(b1-3)Gal(b1-4)GlcNAc(b1-3)Gal(b1-4)GlcNAc(b1-2)Man(a1-3)[Gal(b1-4)GlcNAc(b1-3)Gal(b1-4)GlcNAc(b1-3)Gal(b1-4)GlcNAc(b1-2)Man(a1-6)]Man(b1-4)GlcNAc(b1-4)GlcNAc
# Summary of the method: as §1
# [3] = molecular target: Gal(b1-4)GlcNAc(b1-3)Gal(b1-4)GlcNAc(b1-3)Gal(b1-4)GlcNAc(b1-2)Man(a1-3)[Gal(b1-4)GlcNAc(b1-3)Gal(b1-4)GlcNAc(b1-3)Gal(b1-4)GlcNAc(b1-2)Man(a1-6)]Man(b1-4)GlcNAc(b1-4)[Fuc(a1-6)]GlcNAc
# Summary of the method: as §1
# [4] = molecular target: Gal(b1-4)GlcNAc(b1-3)Gal(b1-4)GlcNAc(b1-3)Gal(b1-4)GlcNAc(b1-2)[Gal(b1-4)GlcNAc(b1-3)Gal(b1-4)GlcNAc(b1-3)Gal(b1-4)GlcNAc(b1-6)]Man(a1-6)[Gal(b1-4)GlcNAc(b1-3)Gal(b1-4)GlcNAc(b1-3)Gal(b1-4)GlcNAc(b1-2)Man(a1-3)]Man(b1-4)GlcNAc(b1-4)[Fuc(a1-6)]GlcNAc
# Summary of the method: as §1
# [5] = molecular target: Gal(b1-4)GlcNAc(b1-3)Gal(b1-4)GlcNAc(b1-3)Gal(b1-4)GlcNAc(b1-3)Gal(b1-4)GlcNAc(b1-2)Man(a1-3)[Gal(b1-4)GlcNAc(b1-3)Gal(b1-4)GlcNAc(b1-3)Gal(b1-4)GlcNAc(b1-3)Gal(b1-4)GlcNAc(b1-2)Man(a1-6)]Man(b1-4)GlcNAc(b1-4)GlcNAc
# Summary of the method: as §1
# [6] = molecular target: Gal(b1-4)GlcNAc(b1-3)Gal(b1-4)GlcNAc(b1-3)Gal(b1-4)GlcNAc(b1-3)Gal(b1-4)GlcNAc(b1-2)Man(a1-3)[Gal(b1-4)GlcNAc(b1-3)Gal(b1-4)GlcNAc(b1-3)Gal(b1-4)GlcNAc(b1-3)Gal(b1-4)GlcNAc(b1-2)Man(a1-6)]Man(b1-4)GlcNAc(b1-4)[Fuc(a1-6)]GlcNAc
# Summary of the method: as §1
# [7] = molecular target: Gal(b1-4)GlcNAc(b1-3)Gal(b1-4)GlcNAc(b1-3)Gal(b1-4)GlcNAc(b1-3)Gal(b1-4)GlcNAc(b1-2)[Gal(b1-4)GlcNAc(b1-3)Gal(b1-4)GlcNAc(b1-3)Gal(b1-4)GlcNAc(b1-3)Gal(b1-4)GlcNAc(b1-6)]Man(a1-6)[Gal(b1-4)GlcNAc(b1-3)Gal(b1-4)GlcNAc(b1-3)Gal(b1-4)GlcNAc(b1-3)Gal(b1-4)GlcNAc(b1-2)Man(a1-3)]Man(b1-4)GlcNAc(b1-4)[Fuc(a1-6)]GlcNAc
# Summary of the method: as §1
# [8] = molecular target: Gal(b1-4)GlcNAc(b1-3)Gal(b1-4)GlcNAc(b1-3)Gal(b1-4)GlcNAc(b1-3)Gal(b1-4)GlcNAc(b1-3)Gal(b1-4)GlcNAc(b1-2)Man(a1-3)[Gal(b1-4)GlcNAc(b1-3)Gal(b1-4)GlcNAc(b1-3)Gal(b1-4)GlcNAc(b1-3)Gal(b1-4)GlcNAc(b1-3)Gal(b1-4)GlcNAc(b1-2)Man(a1-6)]Man(b1-4)GlcNAc(b1-4)GlcNAc
# Summary of the method: as §1
# [9] = molecular target: Gal(b1-4)GlcNAc(b1-3)Gal(b1-4)GlcNAc(b1-3)Gal(b1-4)GlcNAc(b1-3)Gal(b1-4)GlcNAc(b1-3)Gal(b1-4)GlcNAc(b1-2)Man(a1-3)[Gal(b1-4)GlcNAc(b1-3)Gal(b1-4)GlcNAc(b1-3)Gal(b1-4)GlcNAc(b1-3)Gal(b1-4)GlcNAc(b1-3)Gal(b1-4)GlcNAc(b1-2)Man(a1-6)]Man(b1-4)GlcNAc(b1-4)[Fuc(a1-6)]GlcNAc
# Summary of the method: as §1
# [10] = molecular target: Gal(b1-4)GlcNAc(b1-3)Gal(b1-4)GlcNAc(b1-3)Gal(b1-4)GlcNAc(b1-3)Gal(b1-4)GlcNAc(b1-3)Gal(b1-4)GlcNAc(b1-2)[Gal(b1-4)GlcNAc(b1-3)Gal(b1-4)GlcNAc(b1-3)Gal(b1-4)GlcNAc(b1-3)Gal(b1-4)GlcNAc(b1-3)Gal(b1-4)GlcNAc(b1-6)]Man(a1-6)[Gal(b1-4)GlcNAc(b1-3)Gal(b1-4)GlcNAc(b1-3)Gal(b1-4)GlcNAc(b1-3)Gal(b1-4)GlcNAc(b1-3)Gal(b1-4)GlcNAc(b1-2)Man(a1-3)]Man(b1-4)GlcNAc(b1-4)[Fuc(a1-6)]GlcNAc
# Summary of the method: as §1
# [11] = molecular target: Gal(b1-4)GlcNAc(b1-3)Gal(b1-4)GlcNAc(b1-3)Gal(b1-4)GlcNAc(b1-3)Gal(b1-4)GlcNAc(b1-3)Gal(b1-4)GlcNAc(b1-3)Gal(b1-4)GlcNAc(b1-2)Man(a1-3)[Gal(b1-4)GlcNAc(b1-3)Gal(b1-4)GlcNAc(b1-3)Gal(b1-4)GlcNAc(b1-3)Gal(b1-4)GlcNAc(b1-3)Gal(b1-4)GlcNAc(b1-3)Gal(b1-4)GlcNAc(b1-2)Man(a1-6)]Man(b1-4)GlcNAc(b1-4)GlcNAc
# Summary of the method: as §1
# [12] = molecular target: Gal(b1-4)GlcNAc(b1-3)Gal(b1-4)GlcNAc(b1-3)GalNAc
# Summary of the method: as §1
# [13] = molecular target: Gal(b1-4)GlcNAc(b1-3)Gal(b1-4)GlcNAc(b1-3)[Gal(b1-4)GlcNAc(b1-3)Gal(b1-4)GlcNAc(b1-6)]GalNAc
# Summary of the method: as §1
# [14] = molecular target: Gal(b1-4)GlcNAc(b1-3)Gal(b1-4)GlcNAc(b1-6)[Gal(b1-3)]GalNAc
# Summary of the method: as §1
# [15] = molecular target: Gal(b1-4)GlcNAc(b1-3)Gal(b1-4)[Fuc(a1-3)]GlcNAc(b1-3)Gal(b1-4)[Fuc(a1-3)]GlcNAc
# Summary of the method: as §1
# [16] = molecular target: Gal(b1-4)GlcNAc(b1-3)GalNAc
# Summary of the method: as §1
# [17] = molecular target: Gal(b1-4)GlcNAc(b1-3)[Fuc(a1-3)GlcNAc(b1-6)]Gal(b1-4)Glc
# Summary of the method: as §1
# [18] = molecular target: Gal(b1-4)GlcNAc(b1-3)[Gal(b1-4)GlcNAc(b1-6)]Gal(b1-4)GlcNAc
# Summary of the method: as §1
# [19] = molecular target: Gal(b1-4)GlcNAc(b1-3)[Gal(b1-4)GlcNAc(b1-6)]GalNAc
# Summary of the method: as §1
# [20] = molecular target: Gal(b1-4)GlcNAc(b1-3)[GlcNAc(b1-6)]Gal(b1-4)GlcNAc
# Summary of the method: as §1
# [21] = molecular target: Gal(b1-4)GlcNAc(b1-6)Gal(b1-4)GlcNAc
# Summary of the method: as §1
# [22] = molecular target: Gal(b1-4)GlcNAc(b1-6)Gal(b1-4)GlcNAc(b1-6)GalNAc
# Summary of the method: as §1
# [23] = molecular target: Gal(b1-4)GlcNAc(b1-6)GalNAc
# Summary of the method: as §1
binder,measurement,setting,value
HHA (Hippeastrum hybrid) (protein) MQQDCNLVLYDVDKPIWASNTGGLARDCHLNMQSDGNLVVYAPRNQVIWASNTQGENGNYVCILQKDRNVVIYGTARWATGTNIHGAGIVGVPGSAPQNTTAEMIKLVRKYLITK,glycan array binding signal (z-score),[1],-0.213
same,glycan array binding signal (z-score),[2],-0.069
same,glycan array binding signal (z-score),[3],-0.167
same,glycan array binding signal (z-score),[4],-0.143
same,glycan array binding signal (z-score),[5],-0.174
same,glycan array binding signal (z-score),[6],-0.173
same,glycan array binding signal (z-score),[7],-0.174
same,glycan array binding signal (z-score),[8],-0.17
same,glycan array binding signal (z-score),[9],-0.174
same,glycan array binding signal (z-score),[10],0.019
same,glycan array binding signal (z-score),[11],-0.01
same,glycan array binding signal (z-score),[12],0.002
same,glycan array binding signal (z-score),[13],-0.128
same,glycan array binding signal (z-score),[14],-0.122
same,glycan array binding signal (z-score),[15],-0.194
same,glycan array binding signal (z-score),[16],1.05
same,glycan array binding signal (z-score),[17],-0.201
same,glycan array binding signal (z-score),[18],-0.202
same,glycan array binding signal (z-score),[19],-0.247
same,glycan array binding signal (z-score),[20],-0.206
same,glycan array binding signal (z-score),[21],-0.218
same,glycan array binding signal (z-score),[22],-0.191
same,glycan array binding signal (z-score),[23],-0.197
